{"source": "the supplement of paper PMC8728848", "experiment_in_all_cases": "glycan array binding signal (z-score within array); higher = stronger binding", "details_in_all_cases": "glycan notation: IUPAC condensed, linker removed", "key": {"[1]": {"biological_target": "Neu5Ac(a2-3)Gal(b1-4)Glc", "procedure,_shortened": "(§1)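 The binding signal is a Z-score computed within each array and averaged over linkers. Arrays of the same protein sequence at different concentrations or buffers were also averaged together. Data originate from 3228 arrays in the Consortium for Functional Glycomics database, kept only where the protein sequence was available.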"}, "[2]": {"biological_target": "Neu5Ac(a2-3)Gal(b1-4)GlcNAc", "procedure,_shortened": "as §1"}, "[3]": {"biological_target": "Neu5Ac(a2-3)Gal(b1-4)GlcNAc(b1-2)Man(a1-3)[GlcNAc(b1-2)Man(b1-4)GlcNAc(b1-2)Man(a1-6)]Man(b1-4)GlcNAc(b1-4)GlcNAc", "procedure,_shortened": "as §1"}, "[4]": {"biological_target": "Neu5Ac(a2-3)Gal(b1-4)GlcNAc(b1-2)Man(a1-3)[Neu5Ac(a2-6)Gal(b1-4)GlcNAc(b1-2)Man(a1-6)]Man(b1-4)GlcNAc(b1-4)GlcNAc", "procedure,_shortened": "as §1"}, "[5]": {"biological_target": "Neu5Ac(a2-3)Gal(b1-4)GlcNAc(b1-3)Gal", "procedure,_shortened": "as §1"}, "[6]": {"biological_target": "Neu5Ac(a2-3)Gal(b1-4)GlcNAc(b1-3)Gal(b1-3)GlcNAc", "procedure,_shortened": "as §1"}, "[7]": {"biological_target": "Neu5Ac(a2-3)Gal(b1-4)GlcNAc(b1-3)Gal(b1-4)GlcNAc", "procedure,_shortened": "as §1"}, "[8]": {"biological_target": "Neu5Ac(a2-3)Gal(b1-4)GlcNAc(b1-3)Gal(b1-4)GlcNAc(b1-3)Gal(b1-4)GlcNAc", "procedure,_shortened": "as §1"}, "[9]": {"biological_target": "Neu5Ac(a2-3)Gal(b1-4)GlcNAc(b1-3)Gal(b1-4)[Fuc(a1-3)]GlcNAc", "procedure,_shortened": "as §1"}, "[10]": {"biological_target": "Neu5Ac(a2-3)Gal(b1-4)GlcNAc(b1-3)GalNAc", "procedure,_shortened": "as §1"}, "[11]": {"biological_target": "Neu5Ac(a2-3)Gal(b1-4)GlcNAc(b1-6)[Gal(b1-3)]GalNAc", "procedure,_shortened": "as §1"}, "[12]": {"biological_target": "Neu5Ac(a2-3)Gal(b1-4)GlcNAc(b1-6)[Neu5Ac(a2-3)Gal(b1-3)]GalNAc", "procedure,_shortened": "as §1"}, "[13]": {"biological_target": "Neu5Ac(a2-3)Gal(b1-4)GlcNAc6S", "procedure,_shortened": "as §1"}, "[14]": {"biological_target": "Neu5Ac(a2-3)Gal(b1-4)[Fuc(a1-3)]GlcNAc", "procedure,_shortened": "as §1"}, "[15]": {"biological_target": "Neu5Ac(a2-3)Gal(b1-4)[Fuc(a1-3)]GlcNAc(b1-3)Gal", "procedure,_shortened": "as §1"}, "[16]": {"biological_target": "Neu5Ac(a2-3)Gal(b1-4)[Fuc(a1-3)]GlcNAc(b1-3)Gal(b1-4)GlcNAc", "procedure,_shortened": "as §1"}, "[17]": {"biological_target": "Neu5Ac(a2-3)Gal(b1-4)[Fuc(a1-3)]GlcNAc(b1-3)Gal(b1-4)[Fuc(a1-3)]GlcNAc(b1-3)Gal(b1-4)[Fuc(a1-3)]GlcNAc", "procedure,_shortened": "as §1"}, "[18]": {"biological_target": "Neu5Ac(a2-3)Gal(b1-4)[Fuc(a1-3)]GlcNAc(b1-3)GalNAc", "procedure,_shortened": "as §1"}, "[19]": {"biological_target": "Neu5Ac(a2-3)Gal(b1-4)[Fuc(a1-3)]GlcNAc(b1-6)[Gal(b1-3)]GalNAc", "procedure,_shortened": "as §1"}, "[20]": {"biological_target": "Neu5Ac(a2-3)Gal(b1-4)[Fuc(a1-3)]GlcNAc(b1-6)[Neu5Ac(a2-3)Gal(b1-3)]GalNAc", "procedure,_shortened": "as §1"}, "[21]": {"biological_target": "Neu5Ac(a2-3)Gal(b1-4)[Fuc(a1-3)]GlcNAc6S", "procedure,_shortened": "as §1"}, "[22]": {"biological_target": "Neu5Ac(a2-3)Gal6S(b1-4)GlcNAc", "procedure,_shortened": "as §1"}, "[23]": {"biological_target": "Neu5Ac(a2-3)Gal6S(b1-4)[Fuc(a1-3)]GlcNAc", "procedure,_shortened": "as §1"}, "[24]": {"biological_target": "Neu5Ac(a2-3)GalNAc", "procedure,_shortened": "as §1"}, "[25]": {"biological_target": "Neu5Ac(a2-3)GalNAc(b1-4)GlcNAc", "procedure,_shortened": "as §1"}, "[26]": {"biological_target": "Neu5Ac(a2-3)[GalNAc(b1-4)]Gal(b1-4)Glc", "procedure,_shortened": "as §1"}, "[27]": {"biological_target": "Neu5Ac(a2-3)[GalNAc(b1-4)]Gal(b1-4)GlcNAc", "procedure,_shortened": "as §1"}, "[28]": {"biological_target": "Neu5Ac(a2-3)[GalNAc(b1-4)]Gal(b1-4)GlcNAc(b1-3)GalNAc", "procedure,_shortened": "as §1"}, "[29]": {"biological_target": "Neu5Ac(a2-3)[Neu5Ac(a2-6)]GalNAc", "procedure,_shortened": "as §1"}, "[30]": {"biological_target": "Neu5Ac(a2-6)Gal", "procedure,_shortened": "as §1"}, "[31]": {"biological_target": "Neu5Ac(a2-6)Gal(b1-3)GlcNAc(b1-3)[Gal(b1-4)GlcNAc(b1-6)]Gal(b1-4)Glc", "procedure,_shortened": "as §1"}, "[32]": {"biological_target": "Neu5Ac(a2-6)Gal(b1-4)Glc", "procedure,_shortened": "as §1"}, "[33]": {"biological_target": "Neu5Ac(a2-6)Gal(b1-4)GlcNAc", "procedure,_shortened": "as §1"}, "[34]": {"biological_target": "Neu5Ac(a2-6)Gal(b1-4)GlcNAc(b1-2)Man(a1-3)Man(b1-4)GlcNAc(b1-4)GlcNAc", "procedure,_shortened": "as §1"}, "[35]": {"biological_target": "Neu5Ac(a2-6)Gal(b1-4)GlcNAc(b1-2)Man(a1-3)[Gal(b1-4)GlcNAc(b1-2)Man(a1-6)]Man(b1-4)GlcNAc(b1-4)GlcNAc", "procedure,_shortened": "as §1"}, "[36]": {"biological_target": "Neu5Ac(a2-6)Gal(b1-4)GlcNAc(b1-2)Man(a1-3)[GlcNAc(b1-2)Man(a1-6)]Man(b1-4)GlcNAc(b1-4)GlcNAc", "procedure,_shortened": "as §1"}, "[37]": {"biological_target": "Neu5Ac(a2-6)Gal(b1-4)GlcNAc(b1-2)Man(a1-3)[GlcNAc(b1-2)Man(b1-4)GlcNAc(b1-2)Man(a1-6)]Man(b1-4)GlcNAc(b1-4)GlcNAc", "procedure,_shortened": "as §1"}}, "note": "The list shows a part of the results."}
{"binder": "Tap1 (Sordaria macrospora), Q50IV4 (protein) MSHHHHHHHHYTLHLRLINDTSDTLTLVEQTSWWGKNTIWSQVRSTGVHVLSMAASGSSGMLRFQTSKGDFFAVAVGVHNYKRWCDVLVDTADEAPLTKLHPKYYDDKDAKYQALWAQASEFEAKSKSGKTVRIKFYQADGNVLRATVEYL", "values": [{"measurement": "glycan array binding signal (z-score)", "setting": "[1]", "value": -0.239}, {"measurement": "glycan array binding signal (z-score)", "setting": "[2]", "value": -0.251}, {"measurement": "glycan array binding signal (z-score)", "setting": "[3]", "value": -0.246}, {"measurement": "glycan array binding signal (z-score)", "setting": "[4]", "value": -0.225}, {"measurement": "glycan array binding signal (z-score)", "setting": "[5]", "value": -0.249}, {"measurement": "glycan array binding signal (z-score)", "setting": "[6]", "value": -0.239}, {"measurement": "glycan array binding signal (z-score)", "setting": "[7]", "value": -0.244}, {"measurement": "glycan array binding signal (z-score)", "setting": "[8]", "value": -0.247}, {"measurement": "glycan array binding signal (z-score)", "setting": "[9]", "value": -0.235}, {"measurement": "glycan array binding signal (z-score)", "setting": "[10]", "value": -0.19}, {"measurement": "glycan array binding signal (z-score)", "setting": "[11]", "value": 2.22}, {"measurement": "glycan array binding signal (z-score)", "setting": "[12]", "value": 1.16}, {"measurement": "glycan array binding signal (z-score)", "setting": "[13]", "value": -0.248}, {"measurement": "glycan array binding signal (z-score)", "setting": "[14]", "value": -0.226}, {"measurement": "glycan array binding signal (z-score)", "setting": "[15]", "value": -0.248}, {"measurement": "glycan array binding signal (z-score)", "setting": "[16]", "value": -0.144}, {"measurement": "glycan array binding signal (z-score)", "setting": "[17]", "value": -0.202}, {"measurement": "glycan array binding signal (z-score)", "setting": "[18]", "value": 0.059}, {"measurement": "glycan array binding signal (z-score)", "setting": "[19]", "value": -0.008}, {"measurement": "glycan array binding signal (z-score)", "setting": "[20]", "value": 0.019}, {"measurement": "glycan array binding signal (z-score)", "setting": "[21]", "value": -0.246}, {"measurement": "glycan array binding signal (z-score)", "setting": "[22]", "value": -0.242}, {"measurement": "glycan array binding signal (z-score)", "setting": "[23]", "value": -0.237}, {"measurement": "glycan array binding signal (z-score)", "setting": "[24]", "value": -0.236}, {"measurement": "glycan array binding signal (z-score)", "setting": "[25]", "value": -0.247}, {"measurement": "glycan array binding signal (z-score)", "setting": "[26]", "value": -0.247}, {"measurement": "glycan array binding signal (z-score)", "setting": "[27]", "value": -0.24}, {"measurement": "glycan array binding signal (z-score)", "setting": "[28]", "value": -0.233}, {"measurement": "glycan array binding signal (z-score)", "setting": "[29]", "value": -0.233}, {"measurement": "glycan array binding signal (z-score)", "setting": "[30]", "value": -0.186}, {"measurement": "glycan array binding signal (z-score)", "setting": "[31]", "value": -0.21}, {"measurement": "glycan array binding signal (z-score)", "setting": "[32]", "value": -0.23}, {"measurement": "glycan array binding signal (z-score)", "setting": "[33]", "value": -0.228}, {"measurement": "glycan array binding signal (z-score)", "setting": "[34]", "value": -0.211}, {"measurement": "glycan array binding signal (z-score)", "setting": "[35]", "value": -0.225}, {"measurement": "glycan array binding signal (z-score)", "setting": "[36]", "value": -0.209}, {"measurement": "glycan array binding signal (z-score)", "setting": "[37]", "value": -0.238}]}
